The other results are listed elsewhere or left out. Single values are uncertain, as repeats are few or missing.

In this assay the test system is Candida albicans DPL-15. In words: growth (OD600) after compound treatment (apparently relative to screen median) (relative growth (fraction; screen median 1.02)); DPL-15 is a caspofungin-resistant clinical isolate; higher = more fungal growth (less antifungal activity). The conditions noted are these: 25 µM; RPMI 1640; 48 h; 30 °C.
On to `COc1cccc2c(=O)c3cccc(C(=O)NC(C)(C)C)c3[nH]c12`, for which the growth turned out to be 1.09.

Turning to `C=CCN1C(=O)C2=C(C(c3ccccc3)=NCCN2)C1c1ccc(F)cc1` (stereo unspecified), the growth was 1.02.

Consider `COc1ccc(N2C(=O)C3=C(C(C(C)C)=NCCN3C)C2c2ccc3c(c2)OCO3)cc1` (stereo unspecified), for which the growth turned out to be 1.06.

Take `COC(=O)c1ccc(CN2C(=O)[C@@]3(CC(C)=C[C@@H](COc4ccccc4)O3)c3ccccc32)cc1`: the growth is 1.08.

`CCC[C@@H](O)COc1cc2c(cc1C1(c3cc4c(cc3OC[C@H](O)CCC)OCO4)C(=O)Nc3c(F)cccc31)OCO2`: the growth stood at 1.1.

Regarding `O=C(NO)[C@H](Cc1ccccc1)n1nnc(-c2ccccc2)c1C#CC1CC1`, the growth was determined as 0.641.

In the case of `CO[C@@]12O[C@]1([C@]13O[C@@]1(OC)C(=O)c1ccccc1C3=O)C(=O)c1ccccc1C2=O`, the growth is 1.14.

`O=[N+]([O-])c1ccc(CCN2Cc3ccccc3C2)cc1`: the growth stood at 0.959.

As for `COc1ccc([C@@]23Oc4cc(OC)cc(OC)c4[C@]2(O)c2nc(-c4ccc(C)cc4)[nH]c(=O)c2[C@H]3c2ccccc2)cc1`, the growth was determined as 1.05.

With `COC(=O)C/C=C/[C@@H](C)[C@H](NC(=O)[C@H](CC(C)C)NC(=O)OC(C)(C)C)c1ccccc1`, the growth stood at 1.04.

With `CCO[C@H]1CCN(C(=O)c2c(O)cc(O)cc2Nc2cc(C)nn2C)C1`, the growth came to 0.974.

Regarding `COc1ccc([C@]23Oc4cc(OC)cc(OC)c4[C@](O)(C2O)[C@H](c2c(F)c(F)c(F)c(F)c2F)[C@H]3c2ccccc2)cc1` (stereo partly specified), the growth is 0.856.

As for `COc1cc(CC=C(C)C)c2c(=O)c3cccc(C)c3oc2c1O`, the growth came to 1.04.

`C[C@@H]1CC[C@H]2C(=O)N(Cc3cccc([N+](=O)[O-])c3)C[C@H](O)CN2[C@H]1c1ccc(Br)cc1`: the growth came to 0.864.

As to `COc1ccc(N2C(=O)C3=C(C(C(C)C)=NCCN3C)C2c2cccc(C(F)(F)F)c2)cc1` (stereo unspecified), the growth was 1.07.

In the case of `CCNC(=O)[C@H]1[C@H](C(=O)NCC)[C@@H](c2cc(OC)c(OC)c(OC)c2)[C@@H]1c1cc(OC)c(OC)c(OC)c1`, the growth came to 1.05.

As to `CC(C)C1=NCC(C)(C)NC2=C1C(c1cccc(C(F)(F)F)c1)NC2=O` (stereo unspecified), the growth was 0.929.

As to `Nc1c(-c2ccc(Cl)cc2)cnc2c(-c3ccccn3)cnn12`, the growth worked out at 0.943.

For the molecule `CC(C)=CCc1cc(OCC(=O)NCC(=O)NCc2ccc(O)cc2O)cc2oc3cccc(O)c3c(=O)c12`, the growth was 1.14.

For the molecule `C=CCN1C(=O)C2=C(C(C(C)C)=NCCN2)C1c1ccc2c(c1)OCO2` (stereo unspecified), the growth came out at 1.15.

As for `COc1ccc(N2C(=O)C3=C(C(C(C)C)=NCCN3)C2c2ccc3c(c2)OCO3)cc1` (stereo unspecified), the growth was 1.11.

On to `CCOC(=O)Cn1nnc(-c2ccc(COC(=O)CCCC[C@@H]3SC[C@@H]4NC(=O)N[C@@H]43)cc2)n1`, for which the growth came to 1.17.

For `C=CCC1=C([O-])[C@]2(CC=C)CC(=C)C[C@](C(=O)C(C)C)(C1=O)C2=O`, the growth was found to be 1.16.

With `O=C1OCCC=C1C(O)CCc1ccccc1` (stereo unspecified), the growth came out at 1.11.

For the molecule `CC(=O)OC[C@H]1O[C@H](C#CC2CCCC2)C=C[C@H]1OC(C)=O`, the growth was 0.998.

In the case of `CC(=O)OC[C@H]1O[C@H](n2cc(-c3ccc(C(C)(C)C)cc3)nn2)C=C[C@@H]1OC(C)=O`, the growth amounted to 0.959.

Consider `C=CCN1C(=O)c2[nH]nc(C)c2C1c1ccccc1` (stereo unspecified), for which the growth was 0.932.

Take `O=S(=O)(c1ccc(F)cc1)N1CCCc2nc(-c3ccccc3)ccc21`: the growth amounted to 0.907.

Take `CO[C@@H]1[C@H](O)CC[C@]2(O)CN(CCCOC(C)C)[C@@H](CC=C(C)C)[C@](C)(O)[C@@H]12`: the growth was 1.1.

Regarding `COc1cc(OC)c2c(=O)c(O)c(-c3ccc(N(C)C)cc3)n(C)c2c1`, the growth was 0.675.

Consider `COc1ccc(C2=C(c3ccccc3)c3c(nc(-c4csc(C)n4)[nH]c3=O)C2=O)cc1`, for which the growth was found to be 1.51.

As to `CC1=CC2=CC(=O)C=C(C)[C@]2(O)[C@@H]2C=C(C)C(=O)[C@@H]2C1`, the growth worked out at 1.29.

Regarding `CN1CCN=C(c2ccccc2)C2=C1C(=O)N(Cc1ccccc1)C2c1cccc(C(F)(F)F)c1` (stereo unspecified), the growth was found to be 0.975.

With `c1ccc([C@H]2c3cc4c(cc3O[C@H]3Oc5ccccc5[C@H]32)OCO4)cc1`, the growth is 1.05.

Take `CC(C)C1=NCCN(C)C2=C1C(c1ccccc1)N(Cc1ccccc1)C2=O` (stereo unspecified): the growth came out at 0.972.

`CC1=C[C@@H](C)O[C@@]2(C1)C(=O)Nc1cccc(Br)c12`: the growth was 0.899.

Turning to `COc1ccc(N2C(=O)C(O)=C(C(=O)CC(C)C)C2c2ccc(F)cc2)cc1` (stereo unspecified), the growth is 1.13.

On to `COc1ccc(N2C(=O)C3=C(C(CC(C)C)=NCCN3C)C2c2ccccc2)cc1` (stereo unspecified), for which the growth was determined as 1.05.

In the case of `COCCN1C(NCc2cccc(C(F)(F)F)c2)=NC(c2ccccc2)C(C(=O)OC)=C1C` (stereo unspecified), the growth amounted to 1.18.

Consider `COC(=O)[C@]1([C@@H]2CCC(=O)O2)CC(=O)c2c(O)cc(C)c(-c3c(C)cc(O)c4c3O[C@@](C(=O)OC)([C@@H]3CCC(=O)O3)CC4=O)c2O1`, for which the growth worked out at 1.35.

Regarding `COc1ccc(CO/N=C2/CCCC/C=C/CCNC(=O)c3c(O)cc(O)cc3C2)cc1`, the growth is 1.09.

Consider `OC[C@H]1[C@@H](Cc2ccc3c(c2)OCO3)CO[C@@H]1c1ccc2c(c1)OCO2`, for which the growth amounted to 0.982.

Turning to `COc1ccc([C@@]23Oc4cc(OC)cc(OC)c4[C@]2(O)[C@H](O)[C@H](C(=O)c2cc4ccccc4n2C)[C@H]3c2ccccc2)cc1`, the growth worked out at 1.14.

Turning to `c1ccc2c(c1)C[C@H]1[C@@H](c3ccc4c(c3)OCO4)c3cc4c(cc3O[C@@H]21)OCO4`, the growth is 1.09.

In the case of `CC(=O)OC[C@H]1O[C@H](C#CC2=CCCCC2)C=C[C@@H]1OC(C)=O`, the growth amounted to 0.852.

In the case of `CC1=C[C@@H](COc2ccccc2)O[C@@]2(C1)C(=O)N(C)c1ccccc12`, the growth came out at 0.939.

On to `COC(=O)[C@]12C[C@H](C)[C@@H]3[C@@H](C)[C@H](c4ccccc4[C@H]31)N2C(=O)C(F)(F)F`, for which the growth turned out to be 1.03.

As for `Cn1cc(Nc2cc(O)cc(O)c2C(=O)N2CCC(F)(F)C2)cn1`, the growth was 1.1.

Regarding `C#CCCCCCNC(=O)CC1(CNC(=O)c2cccc(/C=N/NS(=O)(=O)c3ccc(C)cc3)c2)CCCCC1`, the growth is 1.05.

Turning to `CC(=O)C1=C2C=CCCN2C(=O)NC1c1ccc(Cl)c(F)c1` (stereo unspecified), the growth stood at 1.03.

Consider `CC(=O)C1=C2C=CCCN2C(=O)N(C)C1c1ccccc1` (stereo unspecified), for which the growth was 1.02.

In the case of `COC(=O)[C@@H]1[C@H](C(=O)OC)[C@@H](c2cc(OC)c(OC)c(OC)c2)[C@H]1c1cc(OC)c(OC)c(OC)c1`, the growth was found to be 1.14.

With `CS(=O)(=O)Oc1c(C[C@@]23CCCCC2=Nc2cc(Cl)cc(Cl)c23)occc1=O`, the growth turned out to be 1.09.

Consider `OCCC[C@@]12C(I)=C3CCCC[C@H]3[C@@H]1CCc1cc3c(cc12)OCO3`, for which the growth was 1.01.

Take `COc1ccc(C(=O)C(CC=C(C)C)C(=O)c2c(OC)cc(OC)c(Br)c2O)c(OC)c1` (stereo unspecified): the growth was determined as 1.08.

As for `COc1cc([C@H]2[C@H](C(=O)NCc3ccccc3)[C@@H](C(=O)NCc3ccccc3)[C@@H]2c2ccc(O)c(OC)c2)ccc1O`, the growth worked out at 0.959.

Take `CC(C)n1cc(Nc2cc(O)cc(O)c2C(=O)N2CC3CC3C2)cn1` (stereo unspecified): the growth amounted to 1.27.

Regarding `O=Cc1ccccc1OCc1ccccc1Br`, the growth turned out to be 0.929.

Turning to `COC(=O)C1=C(C(=O)OC)[C@@H]2N(Cc3ccccc3)c3ccccc3[C@@]23C[C@@H](C(=O)OC)N(S(=O)(=O)c2c(C)noc2C)C3=N1`, the growth was found to be 0.955.

On to `C/C=C/[C@@H]1CC(=O)c2c(O)c(C)c(O)c(C)c2[C@]12C(=O)C=C(C)OC2=O`, for which the growth is 0.934.

`CC(C)(C)OC(=O)NCCCC#CCO`: the growth is 1.28.

With `CC(C)c1nn(-c2ccccc2)c2c1C(c1cccc(C(F)(F)F)c1)NC2=O` (stereo unspecified), the growth worked out at 0.937.

As to `CC(C)c1c2c(nn1Cc1ccccc1)C(=O)NC2c1ccc2c(c1)OCO2` (stereo unspecified), the growth was determined as 1.1.

Consider `CCO[C@@H]1CCN(C(=O)c2c(O)cc(O)cc2Nc2cn(C)nc2C)C1`, for which the growth was 1.11.

For `C=CCOC(=O)N[C@H](c1ccccc1)[C@H](C)/C=C/CC(=O)O`, the growth turned out to be 1.06.

Turning to `COC(=O)c1c(C(=O)OC)c2c3ccccc3cc(C3CC3)n2c1C(=O)OC`, the growth came out at 0.926.

`C=C(C)CC1C(=O)CCC1=O`: the growth was 1.16.

In the case of `COC(=O)C1=C(C)N(Cc2ccccc2)C(NCCc2ccc(Br)cc2)=N[C@H]1c1cccc(C(F)(F)F)c1`, the growth is active: 0.0554.

On to `Cc1ccc(S(=O)(=O)N2CCC3(CC2)CNC(=O)c2cccc(c2)-c2cc(n[nH]2)CC(C)(C)CNC(=O)C3)cc1`, for which the growth amounted to 0.974.

As for `CC[C@@H](O)COc1cc2c(cc1C1(c3cc4c(cc3OC[C@H](O)CC)OCO4)C(=O)Nc3cc(F)ccc31)OCO2`, the growth turned out to be 1.08.

For `CCCCCOS(=O)(=O)NC(C)(C)c1ccccn1`, the growth is 1.1.

Regarding `CC(=O)C1=C2C=CCCN2C(=O)NC1c1ccccc1` (stereo unspecified), the growth is 1.01.

Turning to `COC(=O)c1[nH]c2ccc(OC)cc2c1[C@]12CCN(C(=O)c3ccc(C(F)(F)F)cc3)[C@H]1Nc1ccccc12`, the growth was determined as 1.02.

On to `CC(=O)C1=C(C)N(CC#C[Si](C)(C)C)C(=O)NC1c1ccccc1` (stereo unspecified), for which the growth worked out at 1.17.

With `CO[C@@H]1[C@H](O)CC[C@]2(O)CN(Cc3ccco3)[C@@H](CC=C(C)C)[C@](C)(O)[C@@H]12`, the growth turned out to be 1.

As for `COc1cc(OC)c2oc(/C=C(\O)CC(C)=O)cc2c1C(=O)O`, the growth came out at 1.03.

The record behind these values is the supplement of paper PMC10986608.
